Assay results reported in the supplement of paper PMC11876631.
± gives the standard deviation of the averaged measurements. Laboratory Escherichia coli strains with one amino-acid change in an essential protein, pooled on minimal glucose agar with carbenicillin or gentamicin at twice the control MIC (plus kanamycin and chloramphenicol for the plasmids), 48 h. Fold change of barcode share against drug-free plates; higher = less susceptible. Active = above 20 in both replicates (the paper's putatively resistant). '<' = one read or none on drug, '>' = one read or none on a drug-free plate. Shares are relative, so most strains fall below 1 when a few take over. Listed are strains with at least 15 reads on both drug-free plates, and hits; most hits rest on fewer reference reads. Replicate rank correlation about 0.5. Edits are read from barcodes.

Target: Escherichia coli (laboratory strain)
Assay: barcode share on antibiotic plates over drug-free plates; higher = less susceptible
Experimental: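 A pool of E. coli strains, each edited to carry one amino-acid change in an essential protein, was grown for 48 h on minimal glucose agar with or without antibiotic; strain barcodes were sequenced; mean of two replicates.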

[1] = antibiotic: carbenicillin, 2× MIC (3.1 µg/mL)
[2] = antibiotic: gentamicin, 2× MIC (MIC 0.45 µg/mL)

B1: lptG M289Q (protein)
chain: MQPFGVLDRYIGKTIFTTIMMTLFMLVSLSGIIKFVDQLKKAGQGSYDALGAGMYTLLSVPKDVQIFFPMAALLGALLGLGMLAQRSELVVMQASGFTRMQVALSVMKTAIPLVLLTMAIGEWVAPQGEQMARNYRAQAMYGGSLLSTQQGLWAKDGNNFVYIERVKGDEELGGISIYAFNENRRLQSVRYAATAKFDPEHKVWRLSQVDESDLTNPKQITGSQTVSGTWKTNLTPDKLGVVALDPDALSISGLHNYVKYLKSSGQDAGRYQLNMWSKIFQPLSVAVMQLMALSFIFGPLRSVPMGVRVVTGISFGFVFYVLDQIFGPLTLVYGIPPIIGALLPSASFFLISLWLLMRKS
fold change of barcode share [1]: 0.25 ± 0.064
fold change of barcode share [2]: 0.00592 ± 0.0022

B2: lptG M289D (protein)
chain: MQPFGVLDRYIGKTIFTTIMMTLFMLVSLSGIIKFVDQLKKAGQGSYDALGAGMYTLLSVPKDVQIFFPMAALLGALLGLGMLAQRSELVVMQASGFTRMQVALSVMKTAIPLVLLTMAIGEWVAPQGEQMARNYRAQAMYGGSLLSTQQGLWAKDGNNFVYIERVKGDEELGGISIYAFNENRRLQSVRYAATAKFDPEHKVWRLSQVDESDLTNPKQITGSQTVSGTWKTNLTPDKLGVVALDPDALSISGLHNYVKYLKSSGQDAGRYQLNMWSKIFQPLSVAVMDLMALSFIFGPLRSVPMGVRVVTGISFGFVFYVLDQIFGPLTLVYGIPPIIGALLPSASFFLISLWLLMRKS
fold change of barcode share [1]: 0.263 ± 0.0082
fold change of barcode share [2]: 0.00718 ± 0.0047

B3: lptG L73A (protein)
chain: MQPFGVLDRYIGKTIFTTIMMTLFMLVSLSGIIKFVDQLKKAGQGSYDALGAGMYTLLSVPKDVQIFFPMAAALGALLGLGMLAQRSELVVMQASGFTRMQVALSVMKTAIPLVLLTMAIGEWVAPQGEQMARNYRAQAMYGGSLLSTQQGLWAKDGNNFVYIERVKGDEELGGISIYAFNENRRLQSVRYAATAKFDPEHKVWRLSQVDESDLTNPKQITGSQTVSGTWKTNLTPDKLGVVALDPDALSISGLHNYVKYLKSSGQDAGRYQLNMWSKIFQPLSVAVMMLMALSFIFGPLRSVPMGVRVVTGISFGFVFYVLDQIFGPLTLVYGIPPIIGALLPSASFFLISLWLLMRKS
fold change of barcode share [1]: 0.418 ± 0.069
fold change of barcode share [2]: 0.00268 ± 0.00013

B4: lptG L73D (protein)
chain: MQPFGVLDRYIGKTIFTTIMMTLFMLVSLSGIIKFVDQLKKAGQGSYDALGAGMYTLLSVPKDVQIFFPMAADLGALLGLGMLAQRSELVVMQASGFTRMQVALSVMKTAIPLVLLTMAIGEWVAPQGEQMARNYRAQAMYGGSLLSTQQGLWAKDGNNFVYIERVKGDEELGGISIYAFNENRRLQSVRYAATAKFDPEHKVWRLSQVDESDLTNPKQITGSQTVSGTWKTNLTPDKLGVVALDPDALSISGLHNYVKYLKSSGQDAGRYQLNMWSKIFQPLSVAVMMLMALSFIFGPLRSVPMGVRVVTGISFGFVFYVLDQIFGPLTLVYGIPPIIGALLPSASFFLISLWLLMRKS
fold change of barcode share [1]: 0.411 ± 0.16
fold change of barcode share [2]: 0.00704 ± 0.00045

B5: lptG L73P (protein)
chain: MQPFGVLDRYIGKTIFTTIMMTLFMLVSLSGIIKFVDQLKKAGQGSYDALGAGMYTLLSVPKDVQIFFPMAAPLGALLGLGMLAQRSELVVMQASGFTRMQVALSVMKTAIPLVLLTMAIGEWVAPQGEQMARNYRAQAMYGGSLLSTQQGLWAKDGNNFVYIERVKGDEELGGISIYAFNENRRLQSVRYAATAKFDPEHKVWRLSQVDESDLTNPKQITGSQTVSGTWKTNLTPDKLGVVALDPDALSISGLHNYVKYLKSSGQDAGRYQLNMWSKIFQPLSVAVMMLMALSFIFGPLRSVPMGVRVVTGISFGFVFYVLDQIFGPLTLVYGIPPIIGALLPSASFFLISLWLLMRKS
fold change of barcode share [1]: 0.413 ± 0.026
fold change of barcode share [2]: 0.014 ± 0.018

B6: lptG I15Q (protein)
chain: MQPFGVLDRYIGKTQFTTIMMTLFMLVSLSGIIKFVDQLKKAGQGSYDALGAGMYTLLSVPKDVQIFFPMAALLGALLGLGMLAQRSELVVMQASGFTRMQVALSVMKTAIPLVLLTMAIGEWVAPQGEQMARNYRAQAMYGGSLLSTQQGLWAKDGNNFVYIERVKGDEELGGISIYAFNENRRLQSVRYAATAKFDPEHKVWRLSQVDESDLTNPKQITGSQTVSGTWKTNLTPDKLGVVALDPDALSISGLHNYVKYLKSSGQDAGRYQLNMWSKIFQPLSVAVMMLMALSFIFGPLRSVPMGVRVVTGISFGFVFYVLDQIFGPLTLVYGIPPIIGALLPSASFFLISLWLLMRKS
fold change of barcode share [1]: 0.612 ± 0.33

B7: lptG L73Q (protein)
chain: MQPFGVLDRYIGKTIFTTIMMTLFMLVSLSGIIKFVDQLKKAGQGSYDALGAGMYTLLSVPKDVQIFFPMAAQLGALLGLGMLAQRSELVVMQASGFTRMQVALSVMKTAIPLVLLTMAIGEWVAPQGEQMARNYRAQAMYGGSLLSTQQGLWAKDGNNFVYIERVKGDEELGGISIYAFNENRRLQSVRYAATAKFDPEHKVWRLSQVDESDLTNPKQITGSQTVSGTWKTNLTPDKLGVVALDPDALSISGLHNYVKYLKSSGQDAGRYQLNMWSKIFQPLSVAVMMLMALSFIFGPLRSVPMGVRVVTGISFGFVFYVLDQIFGPLTLVYGIPPIIGALLPSASFFLISLWLLMRKS
fold change of barcode share [1]: 0.299 ± 0.064
fold change of barcode share [2]: 0.00727 ± 0.0067
